# Test results: PubChem BioAssay AID463173 (ICCB-Longwood Screening Facility, Harvard Medical School, 2010)
# In all, about 52,000 compounds went through this assay and about 4,300 (8.3%) were called active. Cut-off read from the data, not from the text of the source: active = survival mostly below about 52% (no sharp cut-off); inactive = mostly above about 56%. This is one part of the list.
# System: DeltatarO mutant
# Assay: S. aureus survival, RN4220 and DeltatarO strains – OD600, teichoic acid synthesis inhibitors, primary screen (AID 463173)
# Conditions: S. aureus RN4220 wild type/DeltatarO growth, OD600, 18 h, hits give low values, screened at 18.75 µg/mL (by protocol)
row,SMILES,survival
1,O=C(O)CCC(=O)N1CCN(Cc2ccc3c(c2)OCO3)CC1,inactive: 75%
2,Cc1ccc(OCC(=O)OCc2cc(=O)n3nc(-c4cccs4)sc3n2)cc1,inactive: 96%
3,COc1cccc(NC(=O)C2CCCN(c3nnc(-n4c(C)ccc4C)s3)C2)c1 (centres undefined),inactive: 79%
4,COCCCn1c(=N)c(S(=O)(=O)c2ccccc2)cc2c(=O)n3cc(C)ccc3nc21,inactive: 68%
5,CC(C(=O)O)n1nc2ccccc2n1 (centres undefined),inactive: 95%
6,COc1ccccc1CNC(=O)CCCn1nc(C)c2sc3ccccc3c2c1=O,inactive: 86%
7,Cc1ccccc1OCC(=O)Nc1ccc2nc(SCC(=O)N(C)c3ccccc3)sc2c1,inactive: 62%
8,CC(C)(C)OC(=O)N1CCC(c2c(C(=O)N3CCN(c4ccc(Cl)cc4)CC3)cnn2-c2ccc(F)cc2F)CC1,inactive: 84%
9,COCCCNC(=O)c1cnn(-c2ccccc2Cl)c1C1CCN(C(=O)OC(C)(C)C)CC1,inactive: 77%
10,CC(=O)Nc1ccc(Cl)cn1,inactive: 86%
11,COc1ccc(CNC(=O)C2CCN(C(=O)c3ccc(-n4ccc5ccccc54)s3)CC2)cc1,inactive: 90%
12,COc1ccc(CCNC(=O)c2cccc(-n3c(C)nc4cccnc43)c2)cc1OC,inactive: 72%
13,COc1ccc(-c2cc3nc(-c4ccc(Br)cc4)cc(C(F)(F)F)n3n2)cc1,inactive: 51%
14,COC(=O)c1ccc(NC(=O)CSc2cn(CC(=O)N3CCCCCC3)c3ccccc23)cc1,inactive: 68%
15,COc1ccc(NC(=O)C(=O)NCCc2ccc(OC)c(OC)c2)c(OC)c1,inactive: 133%
16,Cc1c(NC(=O)c2cc(-c3ccc(O)cc3)on2)c(=O)n(-c2ccccc2)n1C,inactive: 169%
17,COc1ccccc1CNc1nc2ccccc2c2nc(-c3cccnc3)nn12,active: 48%
18,O=C(COc1ccccc1Cl)OCc1cc(=O)n2nc(C3CC3)sc2n1,inactive: 84%
19,Cc1ccc(N2CC(C(=O)Nc3ccc(Cl)cc3Cl)CC2=O)cc1 (centres undefined),inactive: 77%
20,Cc1cccc(Cn2c(SCc3ccc(C(=O)NC4CCCCC4)cc3)nc3cccnc32)c1,inactive: 64%
21,COc1ccccc1CNC(=O)CCCn1c(=O)c2ccccc2n(Cc2ccccc2F)c1=O,inactive: 116%
22,COc1ccccc1NC(=O)CCNS(=O)(=O)c1ccc2c(c1)CCCC(=O)N2,inactive: 81%
23,CCn1c(=O)cc(SCC(=O)N2CCN(c3cc(C)ccc3C)CC2)c2ccccc21,inactive: 57%

row,SMILES,survival
1,C/C(=N/NC(=O)C(F)(F)F)c1cccs1,inactive: 70%
2,CCOCN(C(=O)CSc1nc2ccccc2[nH]1)c1c(C)cccc1CC,inactive: 135%
3,CCOC(=O)c1c(C)oc2nc(C)nc(NCc3cccc(OC)c3)c12,inactive: 72%
4,CCCCN(CC)C(=O)Cn1nc(C)c2c(C)n(-c3ccccc3)nc2c1=O,inactive: 101%
5,Nc1nnc(C2CCCC2)s1,inactive: 77%
6,Cc1cc2c(C)nc3ccc(C(=O)O)cc3c2o1,inactive: 71%
7,CCN(CC)C(=O)Cn1cc(SCC(=O)Nc2ccc(C)cc2)c2ccccc21,inactive: 67%
8,O=C1CCCc2c1cc(C(=O)Nc1ccc(Cl)cn1)c(=O)n2-c1ccccc1,inactive: 66%
9,Cc1ccc(C)c(N2CCN(C(=O)Cn3nc(Cc4cccnc4)c4ccccc4c3=O)CC2)c1,inactive: 66%
10,COc1ccc(C)cc1NC(=O)C(NS(=O)(=O)c1cccc2nsnc12)c1ccccc1 (centres undefined),inactive: 58%
11,CCOC(=O)N1CCc2c(sc3c2c(=O)n(-c2ccc(Cl)cc2)c(=O)n3CC(=O)Nc2ccccc2)C1,inactive: 76%
12,O=C(CSc1nnc(-c2ccccc2)o1)N1CCCc2ccccc21,inactive: 80%
13,CCOc1ccccc1CNC(=O)c1cnc2sc(N3CCC(C)CC3)nn2c1=O,inactive: 87%
14,COc1ccc(C(=O)Nc2nnc(S(=O)(=O)N3CCOCC3)s2)cc1,inactive: 99%
15,CCc1ccc(-c2csc(-c3cc4cc(Br)ccc4oc3=O)n2)cc1,inactive: 118%
16,Cc1nn(C(C)C(=O)NCc2cccc(F)c2)c(=O)c2c1sc1ccccc12 (centres undefined),inactive: 59%
17,Cc1nc2c3ccccc3nc(NNC(=O)CCC(=O)N3CCN(c4ccccc4F)CC3)n2n1,inactive: 79%
18,COc1cc(C2c3c(oc4ccc(C)cc4c3=O)C(=O)N2Cc2ccc(F)cc2)ccc1O (centres undefined),inactive: 87%
19,Cc1ccc(C(=O)Nc2ccccc2F)cc1S(=O)(=O)N1CCOCC1,inactive: 52%
20,Cc1ccc(NC(=O)CCC(=O)N2CCOc3ccccc32)c(Cl)c1,inactive: 68%
21,CCCC1(C(=O)OCC)NC(c2ccc(N(C)C)cc2)C2C(=O)N(c3ccc(OCC)cc3)C(=O)C21 (centres undefined),inactive: 99%
22,Cc1cccc(CNC(=O)C2CCN(c3nc4ccc(Cl)cc4[nH]3)CC2)c1,inactive: 70%
23,Cc1cc(C)c2c(C)c(C(=O)N3CCC(c4nc5ccccc5s4)CC3)oc2c1,inactive: 68%

row,SMILES,survival
1,COc1ccc(CN(CC(=O)NC2CCCC2)C(=O)Cn2nnc(-c3ccc(OC)cc3)n2)cc1,inactive: 97%
2,Cc1ccc(S(=O)(=O)CCc2nnc(NC(=O)C3CCCN3C(=O)NC3CCCCC3)s2)cc1 (centres undefined),inactive: 72%
3,Cn1cccc1C(C(=O)NC1CCCCC1)N(C(=O)Cc1cccs1)c1ccccc1 (centres undefined),inactive: 75%
4,CCOC(=O)c1c(C)[nH]c(C)c1S(=O)(=O)NCC(=O)N(C)c1ccc(C)c(C)c1,inactive: 124%
5,O=C(Nc1c(C(=O)c2ccccc2)oc2ccccc12)c1cc(=O)c2ccccc2o1,inactive: 52%
6,COc1ccc(NC(=O)CSc2nc(-c3ccccc3)nc3cc(=O)[nH]n23)cc1,inactive: 69%
7,CC(C)CCn1c(Br)nc2c1c(=O)n(Cc1ccccc1)c(=O)n2C,inactive: 83%
8,CSc1ncc(C(=O)Nc2ccccc2C(=O)c2ccccc2)c(C)n1,inactive: 64%
9,CN(CCC#N)C(=O)C1CCN(S(=O)(=O)c2ccc(-n3cnnn3)cc2)CC1,inactive: 91%
10,CC(C)(C)c1ccc(NC(=O)CSc2nnc3scc(-c4ccccc4)n23)cc1,active: 41%
11,CCC(=O)Nc1ccc(-c2nc3c(C)cccc3c(=O)o2)cc1,inactive: 94%
12,Cc1nc2cccnc2n1-c1cccc(C(=O)NCCc2ccc(Cl)cc2)c1,inactive: 77%
13,c1cc2c(cc1CNC1CCCC1)OCO2,inactive: 88%
14,N#Cc1ccccc1NC(=O)C(=O)NCC(c1ccc2c(c1)OCO2)N1CCN(c2ccccc2)CC1 (centres undefined),inactive: 113%
15,CCCCN(CC)C(=O)Cn1c(=O)n(-c2ccc(OCC)cc2)c(=O)c2c3c(sc21)CCCC3,active: 89%
16,O=C(Nc1ccc2nc(SCC(=O)N3CCCc4ccccc43)sc2c1)c1ccc(F)cc1,inactive: 81%
17,COc1cc(CN2CCc3nc(N4CCN(c5ccccc5F)CC4)ncc3C2)ccc1OC(C)C,inactive: 118%
18,CCC(=O)N1CCCc2cc(S(=O)(=O)Nc3ccc(C)c(C)c3)ccc21,inactive: 68%
19,Cc1c(C(=O)Nc2ccc(Br)cc2F)sc2ncnc(N(C)C3CCCCC3)c12,inactive: 102%
20,Cc1ccc(S(=O)(=O)c2cn(Cc3ccc(F)cc3)c3cc(F)c(F)cc3c2=O)cc1,inactive: 87%
21,CCOC(=O)c1cc2c(=O)n3ccccc3nc2n(CC(C)C)c1=NC(=O)c1cc2ccccc2o1,inactive: 59%
22,CC(C)(C)N1Sc2ccccc2NC1=S,inactive: 81%
23,CC(=O)c1cccc(NC(=O)CCS(=O)(=O)c2ccc(Br)s2)c1,active: 43%

row,SMILES,survival
1,CCOCCn1ccc2c(OCC(=O)Nc3ccc(OC(F)(F)F)cc3)cccc2c1=O,inactive: 93%
2,O=C(CN1C(=O)CC(c2ccccc2)Sc2ccccc21)Nc1cccc(Cl)c1 (centres undefined),inactive: 79%
3,COc1ccc(/C=C/C(=O)Nc2nc3n(n2)C(c2ccccc2)C=C(c2ccccc2)N3)cc1 (centres undefined),inactive: 70%
4,Cc1ccc(-c2cnc(NCc3ccc(C(F)(F)F)cc3)n2C)cc1,active: -5%
5,CCN(C(=O)Cn1c(=O)oc2cc(Cl)ccc21)c1cccc(C(F)(F)F)c1,inactive: 67%
6,Cc1ccc(CCNC(=O)C2CCN(c3nnc(-n4cccc4CNc4ccc(C)cc4)s3)CC2)cc1,inactive: 107%
7,Cc1ccnc(NS(=O)(=O)c2cc(-c3cc(C)no3)ccc2C)c1,inactive: 99%
8,Cc1nc2scc(C)n2c(=O)c1S(=O)(=O)Nc1ccc(N2CCOCC2)cc1,inactive: 84%
9,CCc1ccc(N(CC)C(=O)Cn2c(=O)oc3ccccc32)cc1,inactive: 70%
10,Cc1nn(S(=O)(=O)c2ccc(F)cc2)c(C)c1S(=O)(=O)N1CCC(C)CC1,active: -1%
11,COc1ccc(NC(=O)C2CCCN(S(=O)(=O)c3ccc4c(c3)CCCC(=O)N4)C2)c(OC)c1 (centres undefined),inactive: 89%
12,Cc1ccc(CN(C2CCCC2)S(=O)(=O)c2ccc(S(=O)(=O)N3CCCC(C)C3)cc2)o1 (centres undefined),inactive: 74%
13,COc1ccc(OC)c(CNS(=O)(=O)c2c(C(=O)N3CCCCCC3)c(C)n(C)c2C)c1,inactive: 124%
14,O=S(=O)(c1ccc(Br)cc1)c1nc(-c2cccs2)oc1SCc1ccccc1F,inactive: 66%
15,COCCCNC(=O)c1cc(-c2cccnc2)nc2ccc(S(=O)(=O)N3CCC(C)CC3)cc12,inactive: 113%
16,CN1C(=O)C2(c3ccccc31)N(c1cccc(F)c1)C(=O)CS2(=O)=O (centres undefined),inactive: 120%
17,C=CCNC(=S)N1CCC(C(=O)c2ccc(C)cc2)CC1,inactive: 103%
18,COc1ccc(Cl)cc1NC(=O)c1c(NCc2sccc2C)sc2c1CCCC2,inactive: 71%
19,Clc1ccccc1CNc1nc2ccccc2c2nc(-c3cccnc3)nn12,inactive: 86%
20,COc1ccccc1NC(=O)N1CCN(c2cc(-c3ccccc3)nc3ncnn23)CC1,inactive: 66%
